# Measurements from PMC10668032.
# The list shows a part of the results. At the low end of the ranking the order means little.
# Target: SIX1 homeodomain (reference allele) (UniProt Q15475)
# Assay: universal protein binding microarray
# Settings: Universal all-10-mer PBM (8x60K, AMADID 030236), 300 nM GST-tagged protein, Alexa Fluor 488 anti-GST; buffer, salt, pH and temperature not stated; high values mean tight binding; most listed sequences are background and not binding sites; double strand, one strand shown
row,Sequence,binding signal [E-score]
1,AAACCTCG,-0.0945
2,GCGCGGTA,0.0565
3,CATTAACC,-0.0556
4,AACCAAGC,-0.252
5,ACCGAAGT,-0.157
6,GTCTAGCA,-0.072
7,ATGACGCG,-0.00942
8,AAAACTTC,-0.176
9,AAGCGCAG,-0.0929
10,GGATGCCC,0.0996
11,CCGAACGG,-0.065
12,GTGCTGAA,-0.0775
13,TGATTCCA,0.106
14,GGGAGAGA,-0.0255
15,CTGATTAA,0.149
16,CGGTACCC,0.122
17,TCGAAGCA,-0.298
18,CACGAGGC,-0.185
19,GCGATCCC,0.395
20,AACTGTGG,0.149
21,TGCGGGAA,-0.111
22,AGTCAGCC,-0.153

row,Sequence,binding signal [E-score]
1,ATTCCTAC,-0.0757
2,CGTATATA,0.253
3,AACGGTAG,-0.0597
4,AGGAATCC,0.197
5,AGGTTGGC,-0.0254
6,AGCACTAG,-0.0281
7,GGATCCTA,0.377
8,AGACCCCG,0.23
9,TTGGCAAA,-0.202
10,AATCTGCG,0.0465
11,AAGTACTA,-0.134
12,ATTTAGGA,0.00797
13,AAGCTGTG,-0.106
14,ATAGTAGA,0.193
15,AAGCCGCA,-0.105
16,GACGGCCC,-0.175
17,GTATCAAA,0.452
18,AGCGAAAT,-0.113
19,CCCGGTGC,-0.0819
20,GCAACCAC,-0.282
21,AAAGGCGC,-0.125
22,CCGGTTAC,0.136

row,Sequence,binding signal [E-score]
1,TATGGTGA,0.122
2,ACGTTAGA,-0.145
3,ATATGTGA,0.259
4,ATCTAATA,0.237
5,AACGTAGT,-0.183
6,ACGCTCTG,-0.179
7,ATATAACG,0.233
8,GGCGGTAA,0.0689
9,ATAGCGGG,0.144
10,ATAGGGTG,0.161
11,AGAAGGTG,0.174
12,GAGGAATA,0.21
13,ATGAAACG,0.0421
14,GCTGAGAC,0.214
15,GGTTGTAC,0.0201
16,AACGCAGC,-0.0572
17,AATAAGAA,-0.18
18,AAGTGCAT,-0.14
19,CACAGCGG,-0.0489
20,CATCCTAC,0.157
21,GGATCCGA,0.376
22,AGCGAACG,-0.244

row,Sequence,binding signal [E-score]
1,ACGTCAAC,-0.218
2,GCGACCAA,-0.177
3,AGGGGGAA,-0.0477
4,ACGCGAAA,-0.333
5,CCCCAGAC,-0.107
6,CCGAACAC,-0.0332
7,ATGACGAA,-0.0278
8,CCCTGCAG,0.135
9,CGAGCCCG,0.0269
10,AGAGGAGC,-0.087
11,CAATACGC,0.198
12,AATCAACG,-0.0564
13,GACCTAGA,-0.119
14,GCCATGAA,-0.178
15,ACGCATGC,-0.0871
16,CCTTGGCG,-0.0796
17,CCCACACC,0.078
18,TCCTGTAA,-0.126
19,CGTCGGTC,-0.17
20,GATTTTCC,-0.106
21,GTACTTAA,-0.197
22,AATAAAAT,-0.171

row,Sequence,binding signal [E-score]
1,CGAACCCA,0.148
2,CCGAGGCA,-0.171
3,CGAAGACC,-0.0669
4,CTCACGCA,0.0103
5,AAGGGCTA,-0.0168
6,CGAAACCC,0.173
7,CGCCTGGA,0.0146
8,AGCACATA,0.0159
9,ACTGTCTA,0.0271
10,CGCGGAAC,-0.193
11,ATTGGTAG,-0.0183
12,CCCTATTA,0.0844
13,ACGATACC,0.477
14,ACGCAGAC,-0.041
15,ATGTAGGG,0.0453
16,CACCGCAG,0.0662
17,AGAAAGAA,-0.005
18,TCAATAGA,-0.144
19,ATTAAGAC,-0.0199
20,CCAAAGCA,-0.138
21,GCCCGAAA,-0.208
22,AAGCCATT,-0.242
